# This is one part of the list. The list includes weakly bound sequences.
# Biological target: T1, MBP-FoxP3dN (UniProt Q99JB6)
# T1 sequence: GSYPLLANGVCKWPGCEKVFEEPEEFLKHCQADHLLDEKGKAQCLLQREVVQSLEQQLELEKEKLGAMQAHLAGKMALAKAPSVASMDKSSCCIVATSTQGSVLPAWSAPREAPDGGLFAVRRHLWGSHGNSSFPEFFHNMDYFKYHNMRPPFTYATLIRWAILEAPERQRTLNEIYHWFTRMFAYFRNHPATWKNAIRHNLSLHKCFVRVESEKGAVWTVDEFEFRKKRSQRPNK
# Experiment: PD-seq (MBP pull-down with sequencing)
# Settings: 20 mM Tris-HCl pH 7.5, 100 mM NaCl, 1.5 mM MgCl2, 0.4 uM protein, 0.1 uM dsDNA library, 30 min, room temperature, amylose pull-down; high values mean tight binding; double strand, one strand shown
row,Sequence,binding signal (RPM ratio (pull-down/input))
1,GATGATTGTTCTCCCAGCTGATGAATTGCACAACTCGAGTAAACAAATTTTCCTAATCTTTCTGTTCAAGCGCCATCTAC,1.01
2,GATGATTGTTCTCCCAGCTGATGAATTGGTTTCATCGAGTAAACAAATTTTCCTAATCTTTCTGTTCAAGCGCCATCTAC,0.928
3,GATGATTGTTCTCCCAGCTGATGAATTAACAGTATCGAGTAAACAAATTTTCCTAATCTTTCTGTTCAAGCGCCATCTAC,0.546
4,GATGATTGTTCTCCCAGCTGATGAATTTTCCTTCTCGAGTAAACAAATTTTCCTAATCTTTCTGTTCAAGCGCCATCTAC,0.258
5,GATGATTGTTCTCCCAGCTGATGAATTGGCGCGATCGAGTAAACAAATTTTCCTAATCTTTCTGTTCAAGCGCCATCTAC,0.633
6,GATGATTGTTCTCCCAGCTGATGAATTCCCGTCTTCGAGTAAACAAATTTTCCTAATCTTTCTGTTCAAGCGCCATCTAC,0.33
7,GATGATTGTTCTCCCAGCTGATGAATTGTATAGTTCGAGTAAACAAATTTTCCTAATCTTTCTGTTCAAGCGCCATCTAC,1.58
8,GATGATTGTTCTCCCAGCTGATGAATTGAAGCAGTCGAGTAAACAAATTTTCCTAATCTTTCTGTTCAAGCGCCATCTAC,0.453
9,GATGATTGTTCTCCCAGCTGATGAATTCTCTTCATCGAGTAAACAAATTTTCCTAATCTTTCTGTTCAAGCGCCATCTAC,0.276
10,GATGATTGTTCTCCCAGCTGATGAATTAAATGCATCGAGTAAACAAATTTTCCTAATCTTTCTGTTCAAGCGCCATCTAC,2.36
11,GATGATTGTTCTCCCAGCTGATGAATTCCGTAGCTCGAGTAAACAAATTTTCCTAATCTTTCTGTTCAAGCGCCATCTAC,0.684
12,GATGATTGTTCTCCCAGCTGATGAATTTGTCGTATCGAGTAAACAAATTTTCCTAATCTTTCTGTTCAAGCGCCATCTAC,5.28
13,GATGATTGTTCTCCCAGCTGATGAATTGGGAGGTTCGAGTAAACAAATTTTCCTAATCTTTCTGTTCAAGCGCCATCTAC,0.359
14,GATGATTGTTCTCCCAGCTGATGAATTGCTAAGCTCGAGTAAACAAATTTTCCTAATCTTTCTGTTCAAGCGCCATCTAC,0.454
15,GATGATTGTTCTCCCAGCTGATGAATTACCTCGTTCGAGTAAACAAATTTTCCTAATCTTTCTGTTCAAGCGCCATCTAC,0.371
16,GATGATTGTTCTCCCAGCTGATGAATTTGGAGTGTCGAGTAAACAAATTTTCCTAATCTTTCTGTTCAAGCGCCATCTAC,1.16

row,Sequence,binding signal (RPM ratio (pull-down/input))
1,GATGATTGTTCTCCCAGCTGATGAATTATCATTCTCGAGTAAACAAATTTTCCTAATCTTTCTGTTCAAGCGCCATCTAC,0.578
2,GATGATTGTTCTCCCAGCTGATGAATTATTCGCTTCGAGTAAACAAATTTTCCTAATCTTTCTGTTCAAGCGCCATCTAC,0.326
3,GATGATTGTTCTCCCAGCTGATGAATTACCTTTATCGAGTAAACAAATTTTCCTAATCTTTCTGTTCAAGCGCCATCTAC,0.469
4,GATGATTGTTCTCCCAGCTGATGAATTCCGTGCTTCGAGTAAACAAATTTTCCTAATCTTTCTGTTCAAGCGCCATCTAC,0.536
5,GATGATTGTTCTCCCAGCTGATGAATTTCGAAGTTCGAGTAAACAAATTTTCCTAATCTTTCTGTTCAAGCGCCATCTAC,0.305
6,GATGATTGTTCTCCCAGCTGATGAATTCGGGCGGTCGAGTAAACAAATTTTCCTAATCTTTCTGTTCAAGCGCCATCTAC,0.262
7,GATGATTGTTCTCCCAGCTGATGAATTCTCCCAGTCGAGTAAACAAATTTTCCTAATCTTTCTGTTCAAGCGCCATCTAC,0.211
8,GATGATTGTTCTCCCAGCTGATGAATTCGCGAGCTCGAGTAAACAAATTTTCCTAATCTTTCTGTTCAAGCGCCATCTAC,0.315
9,GATGATTGTTCTCCCAGCTGATGAATTCGAATTCTCGAGTAAACAAATTTTCCTAATCTTTCTGTTCAAGCGCCATCTAC,0.557
10,GATGATTGTTCTCCCAGCTGATGAATTGGTCTGATCGAGTAAACAAATTTTCCTAATCTTTCTGTTCAAGCGCCATCTAC,0.271
11,GATGATTGTTCTCCCAGCTGATGAATTCAGTGAATCGAGTAAACAAATTTTCCTAATCTTTCTGTTCAAGCGCCATCTAC,0.29
12,GATGATTGTTCTCCCAGCTGATGAATTAGGACCTTCGAGTAAACAAATTTTCCTAATCTTTCTGTTCAAGCGCCATCTAC,0.324
13,GATGATTGTTCTCCCAGCTGATGAATTTTGCCTTTCGAGTAAACAAATTTTCCTAATCTTTCTGTTCAAGCGCCATCTAC,5.56
14,GATGATTGTTCTCCCAGCTGATGAATTCCACCAGTCGAGTAAACAAATTTTCCTAATCTTTCTGTTCAAGCGCCATCTAC,0.199
15,GATGATTGTTCTCCCAGCTGATGAATTGGTCACATCGAGTAAACAAATTTTCCTAATCTTTCTGTTCAAGCGCCATCTAC,0.592
